Broadly, the Kd is the concentration at which binding is half-saturated. As usually defined, the koff is the first-order rate constant of dissociation. The term kon denotes the second-order rate constant of association.

This note sets out measurements from US20240076343A1 (CEPHALON, published 2024).

For this test, the target named is T1, recombinant human CD122 extracellular domain, C-terminal poly-histidine tagged (human, UniProt P14784 27-240).
T1 construct: also called CD122/IL-2Rβ; IL-2Rβ
T1 sequence: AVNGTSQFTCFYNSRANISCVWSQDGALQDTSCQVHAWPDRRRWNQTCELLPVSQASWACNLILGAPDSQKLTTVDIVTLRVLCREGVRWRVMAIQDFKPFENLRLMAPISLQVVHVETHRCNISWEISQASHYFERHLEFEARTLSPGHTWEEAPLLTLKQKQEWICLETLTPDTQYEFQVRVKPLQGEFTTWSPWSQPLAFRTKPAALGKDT
The test is described as follows: BLI (Octet). For orientation: Biolayer interferometry detects binding as a change in optical thickness at a sensor tip.

B1: 1H3-hIgG1-L6-hIL-2 (D84A) (other)
heavy: EVQLVESGGGLVQPGRSLKLSCAVSGFTFSDYAMAWVRQAPKKGLEWVATISYDGSRTYYRDSVKGRFTISRDNAKITLYLQMDSLRSEDTATYYCARHGSGYFDYWGQGVMVTVSS[not shown - about 450 residues with a human IgG1 Fc and changes]
light: DTVLTQSPALAVSPGERVTISCRASESVRTGVHWYQQKPGQQPKLLIYGASNLESGVPARFSGSGSGTDFTLTIDPVEADDTATYFCQQSWNDPFTFGSGTKLEIKRTVAAPSVFIFPPSDEQLKSGTASVVCLLNNFYPREAKVQWKVDNALQSGNSQESVTEQDSKDSTYSLSSTLTLSKADYEKHKVYACEVTHQGLSSPVTKSFNRGEC
notes: Built as m13
As for B1, the binding result was “no binding (tested: 300 nM)”.

B2: 1H3-hIgG1-L6-hIL-2 (I92S) (other)
heavy: EVQLVESGGGLVQPGRSLKLSCAVSGFTFSDYAMAWVRQAPKKGLEWVATISYDGSRTYYRDSVKGRFTISRDNAKITLYLQMDSLRSEDTATYYCARHGSGYFDYWGQGVMVTVSS[not shown - about 450 residues with a human IgG1 Fc and changes]
light: DTVLTQSPALAVSPGERVTISCRASESVRTGVHWYQQKPGQQPKLLIYGASNLESGVPARFSGSGSGTDFTLTIDPVEADDTATYFCQQSWNDPFTFGSGTKLEIKRTVAAPSVFIFPPSDEQLKSGTASVVCLLNNFYPREAKVQWKVDNALQSGNSQESVTEQDSKDSTYSLSSTLTLSKADYEKHKVYACEVTHQGLSSPVTKSFNRGEC
notes: Built as m13
For the molecule B2, the binding result is listed as “no binding (tested: 300 nM)”.

B3: 1H3-hIgG1-L6-hIL-2 (D84R) (other)
heavy: EVQLVESGGGLVQPGRSLKLSCAVSGFTFSDYAMAWVRQAPKKGLEWVATISYDGSRTYYRDSVKGRFTISRDNAKITLYLQMDSLRSEDTATYYCARHGSGYFDYWGQGVMVTVSS[not shown - about 450 residues with a human IgG1 Fc and changes]
light: DTVLTQSPALAVSPGERVTISCRASESVRTGVHWYQQKPGQQPKLLIYGASNLESGVPARFSGSGSGTDFTLTIDPVEADDTATYFCQQSWNDPFTFGSGTKLEIKRTVAAPSVFIFPPSDEQLKSGTASVVCLLNNFYPREAKVQWKVDNALQSGNSQESVTEQDSKDSTYSLSSTLTLSKADYEKHKVYACEVTHQGLSSPVTKSFNRGEC
notes: Built as m13
Regarding B3, the dissociation constant (Kd) was determined as 18.8 nM, the koff turned out to be 0.00888 s⁻¹ and the on-rate constant (kon) amounted to 473000 M⁻¹ s⁻¹.

B4: 1H3-hIgG1-L6-hIL-2 (N88E) (other)
heavy: EVQLVESGGGLVQPGRSLKLSCAVSGFTFSDYAMAWVRQAPKKGLEWVATISYDGSRTYYRDSVKGRFTISRDNAKITLYLQMDSLRSEDTATYYCARHGSGYFDYWGQGVMVTVSS[not shown - about 450 residues with a human IgG1 Fc and changes]
light: DTVLTQSPALAVSPGERVTISCRASESVRTGVHWYQQKPGQQPKLLIYGASNLESGVPARFSGSGSGTDFTLTIDPVEADDTATYFCQQSWNDPFTFGSGTKLEIKRTVAAPSVFIFPPSDEQLKSGTASVVCLLNNFYPREAKVQWKVDNALQSGNSQESVTEQDSKDSTYSLSSTLTLSKADYEKHKVYACEVTHQGLSSPVTKSFNRGEC
notes: Built as m13
B4: the binding result is “no binding (tested: 300 nM)”.

B5: 1H3-hIgG1-L6-hIL-2 (I92Y) (other)
heavy: EVQLVESGGGLVQPGRSLKLSCAVSGFTFSDYAMAWVRQAPKKGLEWVATISYDGSRTYYRDSVKGRFTISRDNAKITLYLQMDSLRSEDTATYYCARHGSGYFDYWGQGVMVTVSS[not shown - about 450 residues with a human IgG1 Fc and changes]
light: DTVLTQSPALAVSPGERVTISCRASESVRTGVHWYQQKPGQQPKLLIYGASNLESGVPARFSGSGSGTDFTLTIDPVEADDTATYFCQQSWNDPFTFGSGTKLEIKRTVAAPSVFIFPPSDEQLKSGTASVVCLLNNFYPREAKVQWKVDNALQSGNSQESVTEQDSKDSTYSLSSTLTLSKADYEKHKVYACEVTHQGLSSPVTKSFNRGEC
notes: Built as m13
B5: the Kd is 12.3 nM, the koff amounted to 0.00557 s⁻¹ and the kon was 453000 M⁻¹ s⁻¹.

B6: 1H3-hIgG1-L6-hIL-2 (I92A) (other)
heavy: EVQLVESGGGLVQPGRSLKLSCAVSGFTFSDYAMAWVRQAPKKGLEWVATISYDGSRTYYRDSVKGRFTISRDNAKITLYLQMDSLRSEDTATYYCARHGSGYFDYWGQGVMVTVSS[not shown - about 450 residues with a human IgG1 Fc and changes]
light: DTVLTQSPALAVSPGERVTISCRASESVRTGVHWYQQKPGQQPKLLIYGASNLESGVPARFSGSGSGTDFTLTIDPVEADDTATYFCQQSWNDPFTFGSGTKLEIKRTVAAPSVFIFPPSDEQLKSGTASVVCLLNNFYPREAKVQWKVDNALQSGNSQESVTEQDSKDSTYSLSSTLTLSKADYEKHKVYACEVTHQGLSSPVTKSFNRGEC
notes: Built as m13
With B6, the Kd was determined as 3.38 nM, the koff was 0.00658 s⁻¹ and the kon turned out to be 1.95e+06 M⁻¹ s⁻¹.

B7: 1H3-hIgG1-L6-hIL-2 (L72R) (other)
heavy: EVQLVESGGGLVQPGRSLKLSCAVSGFTFSDYAMAWVRQAPKKGLEWVATISYDGSRTYYRDSVKGRFTISRDNAKITLYLQMDSLRSEDTATYYCARHGSGYFDYWGQGVMVTVSS[not shown - about 450 residues with a human IgG1 Fc and changes]
light: DTVLTQSPALAVSPGERVTISCRASESVRTGVHWYQQKPGQQPKLLIYGASNLESGVPARFSGSGSGTDFTLTIDPVEADDTATYFCQQSWNDPFTFGSGTKLEIKRTVAAPSVFIFPPSDEQLKSGTASVVCLLNNFYPREAKVQWKVDNALQSGNSQESVTEQDSKDSTYSLSSTLTLSKADYEKHKVYACEVTHQGLSSPVTKSFNRGEC
notes: Built as m13
Consider B7, for which the Kd stood at 19.6 nM, the koff amounted to 0.000601 s⁻¹ and the kon came out at 30700 M⁻¹ s⁻¹.

B8: 1H3-hIgG1-L6-hIL-2 (L72D) (other)
heavy: EVQLVESGGGLVQPGRSLKLSCAVSGFTFSDYAMAWVRQAPKKGLEWVATISYDGSRTYYRDSVKGRFTISRDNAKITLYLQMDSLRSEDTATYYCARHGSGYFDYWGQGVMVTVSS[not shown - about 450 residues with a human IgG1 Fc and changes]
light: DTVLTQSPALAVSPGERVTISCRASESVRTGVHWYQQKPGQQPKLLIYGASNLESGVPARFSGSGSGTDFTLTIDPVEADDTATYFCQQSWNDPFTFGSGTKLEIKRTVAAPSVFIFPPSDEQLKSGTASVVCLLNNFYPREAKVQWKVDNALQSGNSQESVTEQDSKDSTYSLSSTLTLSKADYEKHKVYACEVTHQGLSSPVTKSFNRGEC
notes: Built as m13
On to B8, for which the Kd is 9.52 nM, the koff stood at 0.0015 s⁻¹ and the kon worked out at 157000 M⁻¹ s⁻¹.

B9: 1H3-hIgG1-L6-hIL-2 (N88F) (other)
heavy: EVQLVESGGGLVQPGRSLKLSCAVSGFTFSDYAMAWVRQAPKKGLEWVATISYDGSRTYYRDSVKGRFTISRDNAKITLYLQMDSLRSEDTATYYCARHGSGYFDYWGQGVMVTVSS[not shown - about 450 residues with a human IgG1 Fc and changes]
light: DTVLTQSPALAVSPGERVTISCRASESVRTGVHWYQQKPGQQPKLLIYGASNLESGVPARFSGSGSGTDFTLTIDPVEADDTATYFCQQSWNDPFTFGSGTKLEIKRTVAAPSVFIFPPSDEQLKSGTASVVCLLNNFYPREAKVQWKVDNALQSGNSQESVTEQDSKDSTYSLSSTLTLSKADYEKHKVYACEVTHQGLSSPVTKSFNRGEC
notes: Built as m13
B9: the binding result is given as “no binding (tested: 300 nM)”.

B10: 1H3-hIgG1-L6-hIL-2 (I92F) (other)
heavy: EVQLVESGGGLVQPGRSLKLSCAVSGFTFSDYAMAWVRQAPKKGLEWVATISYDGSRTYYRDSVKGRFTISRDNAKITLYLQMDSLRSEDTATYYCARHGSGYFDYWGQGVMVTVSS[not shown - about 450 residues with a human IgG1 Fc and changes]
light: DTVLTQSPALAVSPGERVTISCRASESVRTGVHWYQQKPGQQPKLLIYGASNLESGVPARFSGSGSGTDFTLTIDPVEADDTATYFCQQSWNDPFTFGSGTKLEIKRTVAAPSVFIFPPSDEQLKSGTASVVCLLNNFYPREAKVQWKVDNALQSGNSQESVTEQDSKDSTYSLSSTLTLSKADYEKHKVYACEVTHQGLSSPVTKSFNRGEC
notes: Built as m13
As for B10, the Kd turned out to be 5.45 nM, the koff is 0.000559 s⁻¹ and the kon worked out at 103000 M⁻¹ s⁻¹.

B11: 1H3-hIgG1-L6-hIL-2 (L72H) (other)
heavy: EVQLVESGGGLVQPGRSLKLSCAVSGFTFSDYAMAWVRQAPKKGLEWVATISYDGSRTYYRDSVKGRFTISRDNAKITLYLQMDSLRSEDTATYYCARHGSGYFDYWGQGVMVTVSS[not shown - about 450 residues with a human IgG1 Fc and changes]
light: DTVLTQSPALAVSPGERVTISCRASESVRTGVHWYQQKPGQQPKLLIYGASNLESGVPARFSGSGSGTDFTLTIDPVEADDTATYFCQQSWNDPFTFGSGTKLEIKRTVAAPSVFIFPPSDEQLKSGTASVVCLLNNFYPREAKVQWKVDNALQSGNSQESVTEQDSKDSTYSLSSTLTLSKADYEKHKVYACEVTHQGLSSPVTKSFNRGEC
notes: Built as m13
Consider B11, for which the Kd was 9.03 nM, the koff was found to be 0.00149 s⁻¹ and the kon came to 165000 M⁻¹ s⁻¹.

B12: 1H3-hIgG1-L6-hIL-2 (N88D) (other)
heavy: EVQLVESGGGLVQPGRSLKLSCAVSGFTFSDYAMAWVRQAPKKGLEWVATISYDGSRTYYRDSVKGRFTISRDNAKITLYLQMDSLRSEDTATYYCARHGSGYFDYWGQGVMVTVSS[not shown - about 450 residues with a human IgG1 Fc and changes]
light: DTVLTQSPALAVSPGERVTISCRASESVRTGVHWYQQKPGQQPKLLIYGASNLESGVPARFSGSGSGTDFTLTIDPVEADDTATYFCQQSWNDPFTFGSGTKLEIKRTVAAPSVFIFPPSDEQLKSGTASVVCLLNNFYPREAKVQWKVDNALQSGNSQESVTEQDSKDSTYSLSSTLTLSKADYEKHKVYACEVTHQGLSSPVTKSFNRGEC
notes: Built as m13
In the case of B12, the binding result is reported as “no binding (tested: 300 nM)”.
